# Reference: the supplement of paper PMC3334620
# The full ranking holds about 33,000 sequences; the median of “E-score (-0.5 to 0.5)” is about -0.036, and the highest 2% start at about 0.37. Some of the results follow.
# Target: T1, Yer064c (UniProt P40041)
# T1 sequence: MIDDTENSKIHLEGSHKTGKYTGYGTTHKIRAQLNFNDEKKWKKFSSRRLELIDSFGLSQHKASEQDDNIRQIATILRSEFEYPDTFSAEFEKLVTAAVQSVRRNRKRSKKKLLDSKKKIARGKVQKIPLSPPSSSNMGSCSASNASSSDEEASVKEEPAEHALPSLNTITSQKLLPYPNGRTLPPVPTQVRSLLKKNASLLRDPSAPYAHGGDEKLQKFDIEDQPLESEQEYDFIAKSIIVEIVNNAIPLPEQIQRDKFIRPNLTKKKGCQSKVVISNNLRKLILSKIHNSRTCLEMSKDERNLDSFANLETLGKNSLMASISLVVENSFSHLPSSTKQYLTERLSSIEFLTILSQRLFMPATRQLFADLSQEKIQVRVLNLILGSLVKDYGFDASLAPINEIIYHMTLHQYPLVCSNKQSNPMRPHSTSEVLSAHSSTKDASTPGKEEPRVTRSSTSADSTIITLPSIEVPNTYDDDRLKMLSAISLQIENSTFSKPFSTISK
# Test: PBM E-score (8-mer binding enrichment) (E-score (-0.5 to 0.5)); higher = stronger / more preferred TF binding; most listed sequences are background and not binding sites
# Details: protein concentration: 200 nM; construct: GST-full length
# In short: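 Masliner-normalised scans of fluorescent anti-GST signal were the basis for scoring. That signal came from GST-tagged yeast transcription factors applied at about 100-200 nM to double-stranded universal all-10-mer Agilent arrays on fresh or once-stripped slides. Each ungapped eight-base word, pooled with its reverse complement, received an E-score from the Universal PBM Analysis Suite.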
row,Sequence,PBM E-score
1,GGATTAAA,0.205
2,AAACGTAT,0.0553
3,GCGCAAAA,0.00891
4,AAATGTGG,-0.0256
5,ACTGGCAA,0.0286
6,ACCGTAAA,0.0236
7,CACGTTGC,-0.00855
8,AGGGAGTA,0.0389
9,AAGTTCAT,0.0173
10,GAGCGCGC,-0.194
11,GGACCCCC,-0.312
12,AGACCACC,-0.141
13,ACTTGCAC,-0.00112
14,AGGTCGAC,-0.00066
15,AGGCGGCC,-0.104
16,CCTTCAGC,-0.126
17,CCGCGGAG,-0.127
18,CAGACATA,-0.166
19,AAACGGCA,-0.142
20,ACTAGCGA,0.148
21,ATACATCA,-0.131
22,GTCTTCAA,0.144
23,GGGCTCAA,-0.0532
24,CAGAGGTA,-0.0515
25,GGATCCAC,-0.156

row,Sequence,PBM E-score
1,GATGCCGC,-0.28
2,CTAACACC,-0.0031
3,GGCGTAGA,-0.153
4,CGAGCTCG,0.154
5,AATTCGCA,-0.167
6,GATCACGA,0.0675
7,CCCTACGG,-0.216
8,CGCGTAGC,-0.0788
9,GACACTAC,-0.0177
10,ATACTCGC,-0.00994
11,CTAGAATA,0.0162
12,GAGCACTA,0.0818
13,ATCGCAAA,-0.00969
14,GCTAATCA,0.372
15,AGCGTTGG,-0.135
16,GCTGCCCA,-0.206
17,AAGATGGA,-0.142
18,ATTCGCTC,0.0766
19,CGAAGTCA,0.437
20,TATTGCCA,-0.211
21,GCGCTGGA,-0.107
22,GATGTTCC,-0.164
23,ACAGCTCC,0.0343
24,AAATGTAG,-0.106
25,TACAATCA,0.335

row,Sequence,PBM E-score
1,ATTCGTAC,0.113
2,AAGAGATA,-0.138
3,GATCGACA,-0.179
4,ACCCTCCC,-0.0175
5,AATCTTGT,0.115
6,GTCGCAGA,0.077
7,CGTGCTAA,-0.00101
8,CCATTTGA,-0.0671
9,TCTTCGCA,-0.0221
10,CTTCAGTC,0.292
11,AACGAAGG,-0.209
12,TACTCCAA,0.00552
13,ACGTCAAC,0.0642
14,GATCAGGC,0.00236
15,ATTGAGTG,0.149
16,TCCAAGGA,-0.0695
17,AGTCTAGA,0.165
18,ATATCTGC,-0.0998
19,ACGATAAA,-0.203
20,ACGTCCCT,-0.256
21,ACATGTAA,0.0621
22,GCCTTGGA,-0.138
23,AACTCTCT,0.0451
24,GTTGACTA,0.457
25,AAAGTAGG,-0.13

row,Sequence,PBM E-score
1,AGAGGCTG,-0.167
2,TAGGCCCA,-0.223
3,CTCAAACA,0.174
4,ACTGCCCG,0.153
5,ATGTGAAC,-0.0638
6,AGCGCTTA,-0.111
7,ACGACAAC,0.0443
8,TAAATTAA,0.119
9,CCTTGATA,-0.00742
10,ATTGCACC,-0.0714
11,GGCGCTTA,-0.373
12,ATCTAGCA,-0.135
13,ATATTAAT,0.0804
14,CACCATTA,-0.0505
15,ACTGCTTA,0.0232
16,ATATGACG,0.0376
17,CATCTCGG,0.181
18,AGAGCCAG,-0.228
19,ACCACAGA,-0.0666
20,AAATCGTC,0.0138
21,AACCACCA,0.0562
22,AACGCTTC,-0.185
23,CTAAAGAA,-0.0272
24,ACCGCGGG,0.0814
25,AGCCGCAT,-0.135

row,Sequence,PBM E-score
1,ATGAAAAG,-0.0509
2,ACATACTA,-0.0662
3,CTCTAGAC,0.101
4,ACTACCGG,-0.013
5,GCAATGGA,0.00609
6,AAACAAGT,0.208
7,CTGGGGCC,-0.291
8,AGCCCCGC,-0.279
9,AAGTGGCA,-0.0485
10,GATGCCCC,-0.286
11,TCGCAACA,0.0311
12,ATTGACCA,-0.0765
13,CTGCCTCA,-0.201
14,GATTAGCA,0.171
15,GTTAAACA,0.189
16,CGCTAATA,-0.0255
17,ACCGTGAT,0.136
18,ACCTGACG,-0.192
19,ACCGGGTG,0.1
20,GCACCCCC,-0.268
21,AGCAACCT,-0.232
22,CTGACCAA,0.0591
23,TGGTCACA,0.103
24,GGGGAACC,-0.259
25,AGCAGTAC,0.0125

row,Sequence,PBM E-score
1,CTCTCGTA,0.0984
2,ACCACGTC,-0.183
3,ATGTTGAG,0.109
4,AACTTTGG,-0.0438
5,ACCACATC,0.0593
6,GCAATTCC,-0.137
7,AACAGGTG,-0.107
8,CCAAATCG,-0.0338
9,CCTCAGAC,0.0131
10,ACAATACC,-0.0454
11,GGGGTACA,-0.0824
12,AAAGATAT,0.0952
13,ACCTAATC,0.26
14,CCAGATTC,-0.245
15,CACGCCCG,-0.108
16,TCGCAGCA,0.166
17,GAATGCCC,-0.228
18,ATGTGGAG,0.0652
19,GAAACATC,-0.048
20,ATTGCGCG,0.0888
21,ATCATTTA,0.327
22,GGAAGCAA,-0.241
23,GACACGGC,-0.0491
24,CATAAGGC,-0.0976
25,AATACAGT,0.16

row,Sequence,PBM E-score
1,ACATACAA,0.0536
2,GACCTGCA,-0.00059
3,AAGTTTAA,-0.0209
4,CGAACGTC,-0.304
5,AAAGGGTT,0.00826
6,CTCACGTA,0.0537
7,CACTCGGG,-0.171
8,CCCCAGCG,-0.186
9,TACCCCAA,-0.0991
10,AAACCCTG,-0.0408
11,AACGAGAC,0.0315
12,CATACAAA,0.0211
13,AGGTGCTG,-0.342
14,AAAATTAG,0.0284
15,CGACAATA,0.0752
16,AGATTGCC,-0.163
17,CATCCGTC,-0.0231
18,GTGATACA,0.158
19,TCGCATAA,0.141
20,ATTAGCCC,-0.0976
21,ATGCCTGA,0.13
22,GTCCTTCA,0.0805
23,CTCCCAAG,0.0875
24,ACGACCGG,-0.0792
25,AAACTGAA,0.0322

row,Sequence,PBM E-score
1,ATTATGTG,0.0418
2,AAGGGTTC,-0.0643
3,ACTTATTG,0.0636
4,ACTTCGCC,0.0193
5,ATGTCGTC,-0.203
6,CCACGATA,-0.12
7,CCTTTACA,-0.019
8,GGGCCTAA,-0.173
9,CGAGTTCA,0.143
10,AAGGATAC,-0.0897
11,ACCTCGTG,-0.157
12,CTCTAATA,0.0638
13,AACAGCCA,0.0641
14,AATGACCT,0.0594
15,ATTGGAAC,0.0813
16,CTCTGTTA,-0.00473
17,CCATGGAA,0.063
18,GTGTGGAA,-0.228
19,AGGTGATG,-0.248
20,GAAAGGAA,-0.0158
21,TAGTATCA,0.144
22,CTACATCA,0.0958
23,GCACTGTA,-0.266
24,CTGACCAG,-0.0138
25,AGCGAGAG,0.162

row,Sequence,PBM E-score
1,ATAGACGG,-0.101
2,AGTAGAGG,-0.282
3,AGTTACGC,-0.173
4,GCCACGAC,0.0674
5,TAACTGTA,0.0241
6,AAAGACAT,-0.156
7,TACAAATA,0.116
8,CGACCATA,-0.0113
9,ATACGTCG,-0.179
10,AGCCCGCT,-0.189
11,AGACTGAG,0.246
12,GGTATTAA,0.119
13,AAAGTTAC,0.0933
14,AGGGGCAT,-0.188
15,CGGACCAC,-0.206
16,CATTTGTA,0.116
17,CGAACTAA,0.0257
18,ACGGACTG,0.113
19,CGCCTGCA,-0.136
